Laboratory results published in patent publication US20160194399A1 (CYTOMX THERAPEUTICS, published 2016).

T1: Recombinant cynomolgus (Macaca fascicularis) CD3ε with a polyhistidine affinity tag at the C-terminus (cynomolgus (Macaca fascicularis), UniProt Q95LI5 22-117)
T1 construct: Bought protein; also called cynomolgus CD3ε; cyno CD3ε
T1 sequence (looked up): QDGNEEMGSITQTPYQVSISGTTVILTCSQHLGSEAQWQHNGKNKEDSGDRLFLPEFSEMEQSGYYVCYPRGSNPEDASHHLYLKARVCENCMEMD


Biological target: T1, Recombinant cynomolgus (Macaca …)
Test: ELISA, cynomolgus CD3ε-His coated at 0.1 µg/ml, anti-human Fc-HRP

| Binder | binding result |
| --- | --- |
| Antibody SP34scFv(LvHv)-Fc fusion (Fc fusion, SP34 scFv (Lv-linker-Hv) fused to a human IgG1 Fc; also called SP34 LvHv scFv Fc; SP34 LvHv) QAVVTQESALTTSPGETVTLTCRSSTGAVTTSNYANWVQEKPDHLFTGLIGGTNKRAPGVPARFSGSLIGDKAALTITGAQTEDEAIYFCALWYSNLWVFGGGTKLTVLGGGGSGGGGSGGGGSEVQLVESGGGLVQPKGSLKLSCAASGFTFNTYAMNWVRQAPGKGLEWVARIRSKYNNYATYYADSVKDRFTISRDDSQSILYLQMNNLKTEDTAMYYCVRHGNFGNSYVSWFAYWGQGTLVTVSAGGSLD[human IgG1 Fc with C220S (EU numbers) skipped] | binds |
| Antibody SP34scFv(HvLv)-Fc fusion (Fc fusion, SP34 scFv (Hv-linker-Lv) fused to a human IgG1 Fc; unmasked; also called SP34 HvLv scFv Fc; SP34 HvLv Fc) EVQLVESGGGLVQPKGSLKLSCAASGFTFNTYAMNWVRQAPGKGLEWVARIRSKYNNYATYYADSVKDRFTISRDDSQSILYLQMNNLKTEDTAMYYCVRHGNFGNSYVSWFAYWGQGTLVTVSAGGGGSGGGGSGGGGSQAVVTQESALTTSPGETVTLTCRSSTGAVTTSNYANWVQEKPDHLFTGLIGGTNKRAPGVPARFSGSLIGDKAALTITGAQTEDEAIYFCALWYSNLWVFGGGTKLTVLGGSLD[human IgG1 Fc with C220S (EU numbers) skipped] | binds |
